From patent US7592316B2, “Peptides as NS3-serine protease inhibitors of hepatitis C virus” (Schering Corporation, priority 2000, dated 2009) come the findings set out here.

Structures are written as SMILES. *1 amine or outer side, *2 acyl side, *3 side chain or, on linkers, in order; H or OH if unused. Where a SMILES comes first, the peptide text is derived from it. [ ]: non-standard residue; d: D form. The star is where a group is joined. ξ: configuration not given here. Pro(3R,4S-CMe2) = CC1(C)[C@@H]2[C@@H](C(=O)O)NC[C@@H]21; ξ(3-Amino-2-oxopentanoyl) = CCC(N[*:1])C(=O)C(=O)[*:2]; Pro(3S,4R-CCl2) = O=C(O)[C@H]1NC[C@H]2[C@@H]1C2(Cl)Cl; Pro(3S,4R-CMe2) = CC1(C)[C@H]2[C@@H](C(=O)O)NC[C@H]21; Cyclopropanecarbonyl(1-Ph) = O=C(C1(c2ccccc2)CC1)*; Isobutoxycarbonyl(1S-Me) = CC(C)[C@H](C)OC(=O)*; ξLeu(ψCOCO) = CC(C)CC(N[*:1])C(=O)C(=O)[*:2]; Benzoyl(3-COOH) = O=C(O)c1cccc(C(=O)*)c1; Benzoyl(4-COOH) = O=C(O)c1ccc(C(=O)*)cc1; Pro(4,4-Me2) = CC1(C)CN[C@H](C(=O)O)C1; CF3C(Me)2OCO = CC(C)(OC(=O)*)C(F)(F)F; X32 = O=C(C(=O)[*:2])C(CC1CCC1)N[*:1]; Butanoyl(3,3-Me2) = CC(C)(C)CC(=O)*; X8 = O=C(C(=O)[*:2])C(CC1CC1)N[*:1]; ξPhg(3-Cl) = NC(C(=O)O)c1cccc(Cl)c1; Igl = N[C@H](C(=O)O)C1Cc2ccccc2C1; Hyp = O=C(O)[C@@H]1C[C@@H](O)CN1; X2 = CCCC(N[*:1])C(=O)C(=O)[*:2]; dPhg = N[C@@H](C(=O)O)c1ccccc1; Chg = N[C@H](C(=O)O)C1CCCCC1; Phg = N[C@H](C(=O)O)c1ccccc1; Tle = CC(C)(C)[C@H](N)C(=O)O; ξChg = NC(C(=O)O)C1CCCCC1; ξPhg = NC(C(=O)O)c1ccccc1; ξNle = CCCCC(N)C(=O)O; Bn = c1ccc(C*)cc1; tBu = CC(C)(C)*; MEM = COCCOC*

In the first test the target is HCV NS3/NS4A protease (strain 1a) (Hepatitis C virus genotype 1a, UniProt P27958). The test can be described thus: biochemical. As to conditions: Compounds prepared by Solid Phase Synthesis, Table 3; read-out: Ki* CLASS.
`CCCC(NC(=O)[C@@H]1C[C@@H](OC(C)(C)C)CN1C(=O)[C@@H](NC(=O)c1cccc(C(=O)O)c1)C1CCCCC1)C(=O)C(=O)NCC(=O)N[C@H](C(N)=O)c1ccccc1` (some centres unmarked) ({Benzoyl(3-COOH)}-[Chg][Hyp](tBu)[X2]G[Phg]-NH2): the Ki was in the range of 101 to 1000 nM.

Turning to `CCCC(NC(=O)[C@@H]1C[C@@H](OC(C)(C)C)CN1C(=O)[C@@H](NC(=O)c1cccc(C(=O)O)c1)C1CCCCC1)C(=O)C(=O)NCC(=O)NC(C(N)=O)c1cccc(Cl)c1` (some centres unmarked) ({Benzoyl(3-COOH)}-[Chg][Hyp](tBu)[X2]G[ξPhg(3-Cl)]-NH2), the inhibition constant Ki is 101 to 1000 nM.

Turning to `CCC(NC(=O)[C@@H]1C[C@@H](OC(C)(C)C)CN1C(=O)[C@@H](NC(=O)c1cccc(C(=O)O)c1)C1CCCCC1)C(=O)C(=O)NCC(=O)N[C@H](C(N)=O)c1ccccc1` (some centres unmarked) ({Benzoyl(3-COOH)}-[Chg][Hyp](tBu)[ξ(3-Amino-2-oxopentanoyl)]G[Phg]-NH2), the Ki is > 1000 nM.

Consider `CC(C)CC(NC(=O)[C@@H]1C[C@@H](OC(C)(C)C)CN1C(=O)[C@@H](NC(=O)c1cccc(C(=O)O)c1)C1CCCCC1)C(=O)C(=O)NCC(=O)N[C@H](C(N)=O)c1ccccc1` (some centres unmarked) ({Benzoyl(3-COOH)}-[Chg][Hyp](tBu)[ξLeu(ψCOCO)]G[Phg]-NH2), for which the Ki was > 1000 nM.

For `CCCC(NC(=O)[C@@H]1C[C@@H](OCc2ccccc2)CN1C(=O)C(NC(=O)c1cccc(C(=O)O)c1)C1CCCCC1)C(=O)C(=O)NCC(=O)N[C@@H](C(N)=O)c1ccccc1` (some centres unmarked) ({Benzoyl(3-COOH)}-[ξChg][Hyp](Bn)[X2]G[dPhg]-NH2), the Ki was in the range of 101 to 1000 nM.

As to `CCCCC(NC(=O)CNC(=O)C(=O)C(CCC)NC(=O)[C@@H]1C[C@@H](OCOCCOC)CN1C(=O)C(NC(=O)c1cccc(C(=O)O)c1)C1CCCCC1)C(N)=O` (some centres unmarked) ({Benzoyl(3-COOH)}-[ξChg][Hyp](MEM)[X2]G[ξNle]-NH2), the inhibitory constant (Ki) is > 1000 nM.

For `CCCC(NC(=O)[C@@H]1C[C@@H](OC(C)(C)C)CN1C(=O)[C@@H](NC(=O)c1ccc(C(=O)O)cc1)C1CCCCC1)C(=O)C(=O)NCC(=O)NC(C(N)=O)c1cccc(Cl)c1` (some centres unmarked) ({Benzoyl(4-COOH)}-[Chg][Hyp](tBu)[X2]G[ξPhg(3-Cl)]-NH2), the inhibition constant (Ki) was 101 to 1000 nM.

Turning to `CC(C)CC(NC(=O)[C@@H]1C[C@@H](OC(C)(C)C)CN1C(=O)[C@@H](NC(=O)c1ccc(C(=O)O)cc1)C1CCCCC1)C(=O)C(=O)NCC(=O)N[C@H](C(N)=O)c1ccccc1` (some centres unmarked) ({Benzoyl(4-COOH)}-[Chg][Hyp](tBu)[ξLeu(ψCOCO)]G[Phg]-NH2), the Ki was > 1000 nM.

On to `CCCCC(NC(=O)CNC(=O)C(=O)C(CCC)NC(=O)[C@@H]1C[C@@H](OC(C)(C)C)CN1C(=O)C(NC(=O)CC(C)(C)C)C1CCCCC1)C(N)=O` (some centres unmarked) ({Butanoyl(3,3-Me2)}-[ξChg][Hyp](tBu)[X2]G[ξNle]-NH2), for which the inhibition constant Ki is > 1000 nM.

Turning to `CCCCC(NC(=O)CNC(=O)C(=O)C(CCC)NC(=O)[C@@H]1C[C@@H](OCOCCOC)CN1C(=O)C(NC(=O)C1(c2ccccc2)CC1)C1CCCCC1)C(N)=O` (some centres unmarked) ({Cyclopropanecarbonyl(1-Ph)}-[ξChg][Hyp](MEM)[X2]G[ξNle]-NH2), the Ki was > 1000 nM.

The test is the same for the next values; noted with them: Table 5; HCV NS3/NS4A protease, spectrophotometric assay, 30° C., pH 6.5; read-out: Ki* Range.
Regarding `CCCC(NC(=O)[C@@H]1[C@H]2[C@@H](CN1C(=O)[C@@H](NC(=O)O[C@@H](C)C(C)C)C1Cc3ccccc3C1)C2(C)C)C(=O)C(=O)NCC(=O)N[C@H](C(=O)N(C)C)c1ccccc1` (stereo partly drawn) ({Isobutoxycarbonyl(1S-Me)}-[Igl][Pro(3S,4R-CMe2)][X2]G[Phg]-NMe2), the inhibition constant Ki was 1 to 100 nM.

On to `CCCC(NC(=O)[C@@H]1CC(C)(C)CN1C(=O)[C@@H](NC(=O)O[C@@H](C)C(C)C)C(C)(C)C)C(=O)C(=O)NCC(=O)N[C@H](C(=O)N(C)C)c1ccccc1` (stereo partly drawn) ({Isobutoxycarbonyl(1S-Me)}-[Tle][Pro(4,4-Me2)][X2]G[Phg]-NMe2), for which the Ki was 1 to 100 nM.

The test is the same for the next values; noted with them: Table 6; HCV NS3/NS4A protease, 30° C., pH 6.5; read-out: Ki*.
Turning to `CC(C)[C@H](NC(=O)OC(C)(C)C(F)(F)F)C(=O)N1C[C@H]2[C@@H]([C@H]1C(=O)NC(CC1CC1)C(=O)C(=O)NCC(=O)N[C@H](C(=O)N(C)C)c1ccccc1)C2(C)C` (stereo partly drawn) ({CF3C(Me)2OCO}-V[Pro(3R,4S-CMe2)][X8]G[Phg]-NMe2), the inhibitory constant (Ki) was 1 to 100 nM.

As for `CN(C)C(=O)[C@@H](NC(=O)CNC(=O)C(=O)C(CC1CC1)NC(=O)[C@@H]1[C@@H]2[C@H](CN1C(=O)[C@@H](NC(=O)OC(C)(C)C(F)(F)F)C1CCCCC1)C2(C)C)c1ccccc1` (stereo partly drawn) ({CF3C(Me)2OCO}-[Chg][Pro(3R,4S-CMe2)][X8]G[Phg]-NMe2), the Ki fell in the range of 1 to 100 nM.

Take `CN(C)C(=O)[C@@H](NC(=O)CNC(=O)C(=O)C(CC1CCC1)NC(=O)[C@@H]1[C@@H]2[C@H](CN1C(=O)[C@@H](NC(=O)OC(C)(C)C(F)(F)F)C1CCCCC1)C2(C)C)c1ccccc1` (stereo partly drawn) ({CF3C(Me)2OCO}-[Chg][Pro(3R,4S-CMe2)][X32]G[Phg]-NMe2): the Ki was 1 to 100 nM.

Consider `CN(C)C(=O)[C@@H](NC(=O)CNC(=O)C(=O)C(CC1CC1)NC(=O)[C@@H]1[C@@H]2[C@H](CN1C(=O)[C@@H](NC(=O)OC(C)(C)C(F)(F)F)C(C)(C)C)C2(C)C)c1ccccc1` (stereo partly drawn) ({CF3C(Me)2OCO}-[Tle][Pro(3R,4S-CMe2)][X8]G[Phg]-NMe2), for which the Ki was 1 to 100 nM.

For the compound `CN(C)C(=O)C(NC(=O)CNC(=O)C(=O)C(CC1CC1)NC(=O)[C@@H]1[C@@H]2[C@H](CN1C(=O)[C@@H](NC(=O)OC(C)(C)C(F)(F)F)C(C)(C)C)C2(Cl)Cl)c1ccccc1` (stereo partly drawn) ({CF3C(Me)2OCO}-[Tle][Pro(3S,4R-CCl2)][X8]G[ξPhg]-NMe2), the Ki lay within 1 to 100 nM.
